# Some of the results follow. Repeats are few or missing, and single values can be far off.
# Key:
# Assay in all cases: cell count relative to DMSO control; melanoma cells; higher = more viable cells
# Settings in all cases: library dose: standard library concentration; 72 h
# A101D = test system: A101D
# A2058 = test system: A2058
# A375 = test system: A375
# 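Further: cells treated in 1,536-well plates, then fixed and DAPI-stained, with nuclei counted from automated high-throughput microscope images.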
SMILES,cell count (A101D) [%],cell count (A2058) [%],cell count (A375) [%]
"O=C(/C=C/c1cccnc1)NCCCCC1CCN(C(=O)c2ccccc2)CC1 + CC1(C)NC(=O)N(c2ccc([N+](=O)[O-])c(C(F)(F)F)c2)C1=O [nilutamide] (first compound 0.05 µM, partner dose 5 µM)",93.2,113,112
"O=C(/C=C/c1cccnc1)NCCCCC1CCN(C(=O)c2ccccc2)CC1 + C#Cc1cccc(Nc2ncnc3cc(OCCOC)c(OCCOC)cc23)c1 [erlotinib] (first compound 0.05 µM, partner dose 4 µM)",64.8,90,115
"O=C(/C=C/c1cccnc1)NCCCCC1CCN(C(=O)c2ccccc2)CC1 + Cc1ccc(Nc2nccc(N(C)c3ccc4c(C)n(C)nc4c3)n2)cc1S(N)(=O)=O [Pazopanib] (first compound 0.05 µM, partner dose 2 µM)",69.9,116,106
"Cc1ccc(Nc2nccc(N(C)c3ccc4c(C)n(C)nc4c3)n2)cc1S(N)(=O)=O [Pazopanib] + C[C@@H](N)c1ccc(C(=O)Nc2ccnc3[nH]ccc23)cc1 [RKI983] (first compound 2 µM, partner dose 2 µM)",79,54.8,109
"CC1(C)CCC(c2ccc(Cl)cc2)=C(CN2CCN(c3ccc(C(=O)NS(=O)(=O)c4ccc(N[C@H](CCN5CCOCC5)CSc5ccccc5)c(S(=O)(=O)C(F)(F)F)c4)cc3)CC2)C1 + CNC(=O)c1cc(Oc2ccc(NC(=O)Nc3ccc(Cl)c(C(F)(F)F)c3)cc2)ccn1 [sorafenib] (first compound 2 µM, partner dose 2 µM)",56.2,98.5,88.7
"CC1(C)CCC(c2ccc(Cl)cc2)=C(CN2CCN(c3ccc(C(=O)NS(=O)(=O)c4ccc(N[C@H](CCN5CCOCC5)CSc5ccccc5)c(S(=O)(=O)C(F)(F)F)c4)cc3)CC2)C1 + O=C(O)c1ccc2c(c1)nc(Nc1cccc(Cl)c1)c1ccncc12 [CX4945] (first compound 2 µM, partner dose 2 µM)",33.9,68,39.1
"CC1(C)CCC(c2ccc(Cl)cc2)=C(CN2CCN(c3ccc(C(=O)NS(=O)(=O)c4ccc(N[C@H](CCN5CCOCC5)CSc5ccccc5)c(S(=O)(=O)C(F)(F)F)c4)cc3)CC2)C1 + C=CCn1c(=O)c2cnc(Nc3ccc(N4CCN(C)CC4)cc3)nc2n1-c1cccc(C(C)(C)O)n1 [MK1775] (first compound 2 µM, partner dose 0.1 µM)",19,75.4,36.7
"Cc1ccc(Nc2nccc(N(C)c3ccc4c(C)n(C)nc4c3)n2)cc1S(N)(=O)=O [Pazopanib] + COCC[n+]1c2c(n(Cc3cnccn3)c1C)C(=O)c1ccccc1C2=O [YM155] (first compound 2 µM, partner dose 0.002 µM)",56.4,15.4,67.2
"O=C(/C=C/c1cccnc1)NCCCCC1CCN(C(=O)c2ccccc2)CC1 + C[C@@H](Oc1cc(-c2cnn(C3CCNCC3)c2)cnc1N)c1c(Cl)ccc(F)c1Cl [Crizotinib] (first compound 0.05 µM, partner dose 1 µM)",83.1,94,123
"O=C(/C=C/c1cccnc1)NCCCCC1CCN(C(=O)c2ccccc2)CC1 + Cn1sc(=O)n(Cc2ccccc2)c1=O [TDZD-8] (first compound 0.05 µM, partner dose 2 µM)",101,90.6,97
"Cc1ccc(Nc2nccc(N(C)c3ccc4c(C)n(C)nc4c3)n2)cc1S(N)(=O)=O [Pazopanib] + O=C(O)[C@@H]1[O][Sb](=[O])([O][Sb]2(=[O])[O][C@H]([C@H](O)CO)[C@H](O)[C@H](C(=O)O)[O]2)[O][C@H]([C@H](O)CO)[C@@H]1O [stibogluconate] (first compound 2 µM, partner dose 10 µM)",84.8,119,85.1
"CC1(C)CCC(c2ccc(Cl)cc2)=C(CN2CCN(c3ccc(C(=O)NS(=O)(=O)c4ccc(N[C@H](CCN5CCOCC5)CSc5ccccc5)c(S(=O)(=O)C(F)(F)F)c4)cc3)CC2)C1 + Cc1cn(-c2cc(NC(=O)c3ccc(C)c(Nc4nccc(-c5cccnc5)n4)c3)cc(C(F)(F)F)c2)cn1 [nilotinib] (first compound 2 µM, partner dose 1 µM)",38.4,67.9,87.5
"Cc1ccc(Nc2nccc(N(C)c3ccc4c(C)n(C)nc4c3)n2)cc1S(N)(=O)=O [Pazopanib] + Cn1sc(=O)n(Cc2ccccc2)c1=O [TDZD-8] (first compound 2 µM, partner dose 2 µM)",85.1,74,118

# From the supplement of paper PMC4604168 (melanoma cell lines)
